The other results are listed elsewhere or left out.
B1: chr12:52885226:52885227:-_ENSMUSG00000035247_ENSMUST00000042052|mus_mus|FALSE|FALSE (ssRNA)
RNA: GGGAGUUCUACAGUCCGACGAUCUUUGAAGACAUUUAUUCUUUCUACCAGUUGACUACAAUCUUGCUUCAUAUCCAAAUCUAUACUAUUGUUUAGAACAGUAAGAAGUGCCUGGACUAAACCACUACUACACAUUUCAUACGGCAACAGAGGAUUGAGCAUCA
B2: chr3:138289918:138289919:-_ENSG00000114107_ENST00000484888|hu_mus|motif|central (ssRNA)
RNA: GGGAGUUCUACAGUCCGACGAUCGUGUGCCGCUCGGUUCUGUUCUAGCUGAAGUUCACUUUUCAGUUGCUGGUUGGUCUCGGUGAGCUCCCGUAUCAUGCUCUGCUGACGUGUUGUUUCUUCCAUCAACGUUUUCAAAAUCUGCAACAGAGGAUUGAGCAUCA
B3: chr2:136607347:136607348:+_ENSMUSG00000027273_ENSMUST00000028727|mus_hu|FALSE|FALSE (ssRNA)
RNA: GGGAGUUCUACAGUCCGACGAUCAGAUAACAGCCAUGAGGAACCAAAGACGGCACAUUUUGAGAGAUUCAGAGCCUGACACUCAAAGGACCGUGGCAGUAACUCUGUGGAAUGUCACAGUUUUACAAGAACAAUACUGUGGAUCAACAGAGGAUUGAGCAUCA
B4: chr12:48362563:48362564:+_ENSG00000134291_ENST00000256686|hu_hu|hu_hu_hu_mus_False|28_108 (ssRNA)
RNA: GGGAGUUCUACAGUCCGACGAUCUCCGAAGGGUGAAUCGAUAGACCCUUGCGGGGGAAACUGUAAUCACUUUGUAUGGGGAAGGAAAAGAAACGCCAAAAACUUUCUUUCUUUCUUGGGUGGGGUGAGGCGGGAGGGGGAGGUCAACAGAGGAUUGAGCAUCA
B5: 117016693_117017702_1975_3pUTR_ENSMUSG00000020823_ENSMUST00000090433|mouse|control|control (ssRNA)
RNA: GGGAGUUCUACAGUCCGACGAUCAGCCUGGCCACCUGGUCACAUGGGACCCCUGCACGCUCUCUCCUUCUUUGCAGAUUAGAGGAGACUCCACCAUGCUAUAGUCCCGGCCCAGCUGCCAGACUUUGUCUAUCAGCUGCACGUCAACAGAGGAUUGAGCAUCA
B6: chr7:141450121:141450122:+_ENSG00000106028_ENST00000265304|hu_mus|hu_hu_hu_mus_True|1_8 (ssRNA)
RNA: GGGAGUUCUACAGUCCGACGAUCUCAUCCGUUCUAUGCCUUUUCUUUUGUCUGGUCACUCAGAAAUAUAAUGUUAUCAGCUAUGAUUGUUGUUGCUUGCCGCCUCACAUUGUUUUUAUCCAUGUACUCACCAUAGUCUAUUUUCAACAGAGGAUUGAGCAUCA
B7: chr7:140404665:140404666:+_ENSG00000090266_ENST00000247866|hu_hu|motif|central (ssRNA)
RNA: GGGAGUUCUACAGUCCGACGAUCCUUGUACAGAGUGAGGCUGAGUCUACACCUUCAGUCUUCAUCAUCAGGAGGGAUACCGGAUUCUUCAUCUGUCCACUGGGAAGGAUCAGGAUACGGAAAGUGACCCAGCACCUCUUCUGACAACAGAGGAUUGAGCAUCA
B8: chr11:23185130:23185131:+_ENSMUSG00000020290_ENSMUST00000020538|mus_mus|FALSE|FALSE (ssRNA)
RNA: GGGAGUUCUACAGUCCGACGAUCGAACGGCAUUACUUCUCCAACUUGAACCUGAACAAAAUGCCUACGGCAUUUUUGAGCUAUUUUAAUAAAUGUGUCACAAGCCAUAUCCUGGACUCCAUCAUGGGUCUCAUGCAUGAAUUCCAACAGAGGAUUGAGCAUCA
B9: chr10:57206289:57206290:+_ENSMUSG00000019878_ENSMUST00000079833|mus_hu|motif|central (ssRNA)
RNA: GGGAGUUCUACAGUCCGACGAUCGCCGGCACGUUCGAACUCUGCUUCAUUGUUAACGCGGCGCAGGGAUUCCAAAUUCGGCACCCGAACGCGGUGGUAGCGGCGGCGGCAGCUACGGCAGCAGCUCCCCGAGAACGCCCACAACAACAGAGGAUUGAGCAUCA
B10: chr9:24234919:24234920:-_ENSMUSG00000043067_ENSMUST00000142064|mus_hu|motif|central (ssRNA)
RNA: GGGAGUUCUACAGUCCGACGAUCGUAAACCAGCUCUCCAUGAUCAAACUGGUGUUUUCUUACAUGUGUCUGUUGUUUAGCGGAGACACCCCACAUAUCACUAAUAAUCUUUCUAACAAUAGCAACAAACACUACAAGAACAACCAACAGAGGAUUGAGCAUCA
B11: chr6:30809960:30809961:-_ENSMUSG00000025607_ENSMUST00000048774|mus_mus|FALSE|FALSE (ssRNA)
RNA: GGGAGUUCUACAGUCCGACGAUCACUUGAUGCAGCUUCUUGGGCUUCAUUUAUCCAUCGUUUAACCACAUCAUAGCUUAUCUUCAUCAUGUGUAAGGAAGAGACCAGCGCUGAGCUGGCUACACUGGAUACUUUAUCCACAAUCAACAGAGGAUUGAGCAUCA
B12: 46326924_46327987_897_CDS_ENSG00000139218_ENST00000369367|human|control|control (ssRNA)
RNA: GGGAGUUCUACAGUCCGACGAUCAGGUAAUGUAUCAGGAAACCAUGACAAUUCCAGUUCAUGUCUCUUCUGCCUAAUCAAUGCACUGAUUUCACUGGCUUCUAUAAAUUCUGUACAAUAAGCUCUAUAGGUAAAGGAAGAUUCCAACAGAGGAUUGAGCAUCA
B13: chr10:33190432:33190433:-_ENSG00000150093_ENST00000302278|hu_mus|hu_hu_hu_mus_True|28_28 (ssRNA)
RNA: GGGAGUUCUACAGUCCGACGAUCUACAUUUUCCAAACCUGCAUGUGAAUAAAACCCUGGCCACAGAGCCCCAAAACUACCCUACUGUGACUAAGAUGCUGCUGCUGUUGCAUUCAGGUUGCAAAAUCCGCCUGAGUAGGAUUCCAACAGAGGAUUGAGCAUCA
B14: chr3:58389886:58389887:+_ENSMUSG00000075700_ENSMUST00000107924|mus_mus|motif|central (ssRNA)
RNA: GGGAGUUCUACAGUCCGACGAUCUUUGCCAACAAUUAUUAAGCCUAUUAAUACUAGUUUGAAGACUGACAGGAAAGAUGCGGUGUGUCUAUAAAUUGGUUGAGGGAGAUAAUUCUCGCCUUCAAUGCGGAUGUCUGGAUACCGCAACAGAGGAUUGAGCAUCA
B15: chr4:140556289:140556290:+_ENSMUSG00000036622_ENSMUST00000037055|mus_mus|motif|central (ssRNA)
RNA: GGGAGUUCUACAGUCCGACGAUCGAUGGAGCUCACCAGGCCCCCUUUGGCUGUGCAGAACCCUGUCCGAGUCACCACUGCGGGCACACGGGGUCCCACGUAGGCUCGGGCCUGCAGAAUGAGGGUGCCACAGAAGAGGGUGUGCAACAGAGGAUUGAGCAUCA
B16: chr8:30040655:30040656:+_ENSG00000104671_ENST00000221114|hu_hu|FALSE|FALSE (ssRNA)
RNA: GGGAGUUCUACAGUCCGACGAUCUUAUCUUCAUGUUAUACACUGUUCUUAGUUCUUUACUGGAGUUGAGCUUCCUUUCAUAGUCUUCUUUAGGUGGUGGUAAUUUGGCAAGAUUUUCAUCAAGAAAUCCAGCUGUAGUGUCUGCAACAGAGGAUUGAGCAUCA
B17: chr7:141438946:141438947:+_ENSG00000106028_ENST00000265304|hu_mus|hu_hu_hu_mus_True|8_108 (ssRNA)
RNA: GGGAGUUCUACAGUCCGACGAUCGACUACCUGUAAUUAACACAGGUCUUCGAAACAUGGCUUCUGUUUUUCUUACAACCUAAUCUUUAGGCUUUUCCUAAAGGAAAGAAAGAAAAGAGAAAAAUGAGCAGGGGAUCAACUACACAACAGAGGAUUGAGCAUCA
B18: chr8:40069188:40069189:+_ENSMUSG00000039530_ENSMUST00000167992|mus_mus|FALSE|FALSE (ssRNA)
RNA: GGGAGUUCUACAGUCCGACGAUCCUUCUGUCCGCCCCCGAGCUGGAUGCAGAGCAGCAGCAGCAAGAGGAGGAAGGGAAAGCUACCAGUAGGCAGGUAGCGCAACCGGCGGCCCGCCUGUCUCCGGCGUGAAGGAGCGGCCCUCAACAGAGGAUUGAGCAUCA
B19: chr6:83912051:83912052:+_ENSMUSG00000030016_ENSMUST00000032088|mus_mus|motif|central (ssRNA)
RNA: GGGAGUUCUACAGUCCGACGAUCUGCCUUUUUAUGAGAUGAUAAAACCAAAAUGUCCUUCAAAGCACCAAAUGGUUUUGCGGAGUUGUAAAUUUCUUCUGUAGAAUAUCCUUUGUUAGGCAAAUUAGAAAUAAAUACUACACUCAACAGAGGAUUGAGCAUCA
B20: 27507010_27508669_794_3pUTR_ENSG00000107897_ENST00000396271|human|control|control (ssRNA)
RNA: GGGAGUUCUACAGUCCGACGAUCUGUCAUUCUGUAUAUCCUGAACAAAGCCAUCUUUAUCAUAGCCAUUAGUGACAAUGACUUCCAAAUUCUUAUGGUCUGCUGACUUCUUCAUCAUUUUCUUAUCAUUAUCACUUUGUUCUGCAACAGAGGAUUGAGCAUCA
B21: chr2:47388980:47388981:-_ENSG00000143933_ENST00000272298|hu_mus|hu_hu_hu_mus_True|8_8 (ssRNA)
RNA: GGGAGUUCUACAGUCCGACGAUCUUCAUCUGUUAACUUCUCGCCAAGGUUUGUCAUCACAUGGCGAAGCUCUGCUGCACUAAUAUAGCCAUUGCCAUCCUUAUCAAACACACGGAAUGCUUCUCUAAUUUCUUCUUCACUGUCCAACAGAGGAUUGAGCAUCA
B22: 110453126_110453246_3646_CDS_ENSMUSG00000044791_ENSMUST00000153838|mouse|control|control (ssRNA)
RNA: GGGAGUUCUACAGUCCGACGAUCCAGCUCUGUUUUUCCUAGUCUACUACUAUCUGGCCGAUUAGAGAAAAUCAUCUGCUGCCGAGACUUAUUUGGGAGAUCUUCAAAAUCGUCAGAAUAAACUGGUAGCUCUUGUGGCCUAGACAACAGAGGAUUGAGCAUCA

Target: T1, UNK ZnF1-3 (human, UniProt Q9C0B0 31-174)
T1 sequence: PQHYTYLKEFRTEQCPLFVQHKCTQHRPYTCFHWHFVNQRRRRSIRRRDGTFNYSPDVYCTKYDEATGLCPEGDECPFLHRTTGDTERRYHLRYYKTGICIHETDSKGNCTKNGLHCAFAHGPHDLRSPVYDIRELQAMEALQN
Assay: nsRBNS (natural sequence RNA bind-n-seq); RBNS binding buffer (assumed for nsRBNS): 25 mM Tris pH 7.5, 150 mM KCl, 3 mM MgCl2, 0.01% Triton X-100, 500 ug/ml BSA, 20 U/ml SUPERase-In, 4 C; UNK is unkempt and MSI1 is Musashi-1; names of the RNAs are library labels; protein concentration not given here; high values mean tight binding

Binder | binding signal [enrichment R]
B1 | 0.803
B2 | 0.344
B3 | 1.67
B4 | 1.64
B5 | 0.436
B6 | 0.406
B7 | 0.558
B8 | 1.23
B9 | 1.19
B10 | 1.09
B11 | 0.576
B12 | 0.879
B13 | 1.14
B14 | 1.32
B15 | 0.717
B16 | 1.09
B17 | 0.487
B18 | 0.62
B19 | 0.677
B20 | 0.451
B21 | 0.74
B22 | 0.519

From publication PMC12136788
